The other results are listed elsewhere or left out.

In test [1] the test system is HSkMC (human skeletal muscle cells). The test is described as follows: cytotoxicity call (relative viability < 0.9). The settings on record: 10 µM.
For test [2], the system named is HepG2. The test is described as follows: cytotoxicity call (relative viability < 0.9). The settings on record: 10 µM.
The subject of test [3] is S. aureus RN4220. The test is described as follows: growth inhibition call (relative growth <= 0.2). The settings on record: 50 µM.

Regarding `COc1ccc(S(=O)(=O)N(C)C[C@@H]2OCCCC[C@@H](C)Oc3ccc(NC(=O)CCCCCC(=O)Nc4ccccc4N)cc3C(=O)N([C@H](C)CO)C[C@@H]2C)cc1`, the cytotoxicity call in test [1] and in test [2] was “inactive” throughout. Moreover, the growth inhibition call in test [3] is “inactive”.

Regarding `CCCC(=O)Nc1nc2[nH]c(C)cc(=O)n2n1`, the cytotoxicity call in test [1] and in test [2] was “inactive” each time. Further, in test [3], the growth inhibition call was “inactive”.

`C[C@H](CO)N1C[C@H](C)[C@@H](CN(C)C(=O)NC2CCCCC2)Oc2ccc(NS(C)(=O)=O)cc2C1=O`: the cytotoxicity call in test [1] and in test [2] was “inactive” in each case. Also, the growth inhibition call in test [3] was “inactive”.

`C[C@@H]1CN([C@@H](C)CO)C(=O)Cc2cc(NC(=O)CCCCCC(=O)Nc3ccccc3N)ccc2O[C@H]1CN(C)C(=O)Nc1ccc(F)cc1`: the cytotoxicity call in test [1] and in test [2] was “inactive” each time. For the same molecule, in test [3], the growth inhibition call was “inactive”.

As to `C[C@@H]1CN([C@@H](C)CO)C(=O)c2cc(-c3cccc(C(=O)N(C)C)c3)cnc2O[C@H]1CN(C)S(=O)(=O)c1ccccc1`, the cytotoxicity call in test [1] and in test [2] was “inactive” in each case. Moreover, the growth inhibition call in test [3] was “inactive”.

For the molecule `Cc1noc(C)c1NC(=O)Nc1ccc2c(c1)C(=O)N([C@H](C)CO)C[C@H](C)[C@@H](CN(C)C(=O)Nc1cccc3ccccc13)OCCCC[C@H](C)O2`, the cytotoxicity call in test [1] and in test [2] was “inactive” in each case. The growth inhibition call in test [3] is “inactive”.

`COc1ccc2c3c(n(c2c1)C)[C@@H](CO)N(C[C@]13CCN(CC1)C(=O)CC1CC1)C(=O)CN1CCOCC1`: the cytotoxicity call in test [1] and in test [2] was “inactive” in each case. For the same molecule, the growth inhibition call in test [3] is “inactive”.

In the case of `C[C@H]1CN([C@@H](C)CO)C(=O)Cc2cc(NC(=O)Nc3ccc(C(F)(F)F)cc3)ccc2O[C@H]1CN(C)C(=O)Nc1ccc(F)cc1`, the cytotoxicity call in test [1] is “inactive”. Besides, the cytotoxicity call in test [2] was “active”. In test [3], the growth inhibition call is “inactive”.

On to `O=C([O-])c1ccccc1O.[Na+]`, for which the cytotoxicity call in test [1] and in test [2] was “inactive” in each case. Further, in test [3], the growth inhibition call is “inactive”.

Turning to `C[C@@H]1CCCCO[C@@H](CN(C)C(=O)c2ccccc2)[C@@H](C)CN([C@@H](C)CO)C(=O)c2cc(NC(=O)C3CCCCC3)ccc2O1`, the cytotoxicity call in test [1] and in test [2] was “inactive” in each case. The growth inhibition call in test [3] was “inactive”.

For `CO[C@H]1CN(C)C(=O)c2cc(NS(C)(=O)=O)ccc2OC[C@@H](C)N(C(=O)C2CCCCC2)C[C@H]1C`, the cytotoxicity call in test [1] and in test [2] was “inactive” each time. The growth inhibition call in test [3] was “inactive”.

Take `C[C@H](CO)N1C[C@H](C)[C@@H](CN(C)C(=O)Nc2ccc(F)cc2)OCCCC[C@H](C)Oc2ccc(NS(=O)(=O)c3cccs3)cc2C1=O`: the cytotoxicity call in test [1] and in test [2] was “inactive” each time. Moreover, the growth inhibition call in test [3] is “inactive”.

For `C[C@@H]1CN([C@@H](C)CO)C(=O)c2ccccc2-c2ccccc2CO[C@@H]1CN(C)Cc1ccccc1C(F)(F)F`, the cytotoxicity call in test [1] and in test [2] was “inactive” each time. Besides, the growth inhibition call in test [3] was “inactive”.

In the case of `COc1cc2c(cc1OC)C1C(=O)c3ccc4c(c3OC1CO2)C=CC(C)(C)O4` (centres undefined), in test [1], the cytotoxicity call was “inactive”. In addition, the cytotoxicity call in test [2] is “active”. For the same molecule, the growth inhibition call in test [3] is “inactive”.

Turning to `C[C@H](CO)N1C[C@H](C)[C@H](CN(C)S(C)(=O)=O)Oc2cc(C#Cc3ccccc3)ccc2S1(=O)=O`, the cytotoxicity call in test [1] and in test [2] was “inactive” each time. In test [3], the growth inhibition call was “inactive”.

As for `C[C@H]1CCCCO[C@@H](CN(C)C(=O)Nc2ccc(C(F)(F)F)cc2)[C@@H](C)CN([C@@H](C)CO)C(=O)c2cc(NS(=O)(=O)c3ccc(Cl)cc3)ccc2O1`, the cytotoxicity call in test [1] and in test [2] was “inactive” each time. Moreover, in test [3], the growth inhibition call is “inactive”.

With `C[C@@H]1CCCCO[C@H](CN(C)Cc2ccncc2)[C@@H](C)CN([C@H](C)CO)C(=O)c2cc(NC(=O)CCCCCC(=O)Nc3ccccc3N)ccc2O1`, the cytotoxicity call in test [1] and in test [2] was “inactive” throughout. Further, in test [3], the growth inhibition call was “inactive”.

For `Cl.NC(Cc1ccc(Cl)cc1)C(=O)O` (racemic), the cytotoxicity call in test [1] and in test [2] was “inactive” throughout. Besides, in test [3], the growth inhibition call was “inactive”.

`C[C@H](CO)N1C[C@H](C)[C@@H](CN(C)Cc2ccc(Cl)c(Cl)c2)Oc2ccc(NS(=O)(=O)c3cccs3)cc2C1=O`: the cytotoxicity call in test [1] and in test [2] was “inactive” in each case. The growth inhibition call in test [3] is “inactive”.

With `O=C(O)Cn1c(=O)oc2ccccc21`, the cytotoxicity call in test [1] and in test [2] was “inactive” in each case. Moreover, the growth inhibition call in test [3] is “inactive”.

On to `Cc1ccc(S(=O)(=O)N(C)C[C@@H]2Oc3ccc(NC(=O)CCCN(C)C)cc3C(=O)N([C@H](C)CO)C[C@@H]2C)cc1`, for which the cytotoxicity call in test [1] and in test [2] was “inactive” throughout. In addition, the growth inhibition call in test [3] is “inactive”.

Turning to `C[C@@H]1CCCCO[C@H](CN(C)S(=O)(=O)c2ccccc2)[C@H](C)CN([C@@H](C)CO)C(=O)c2cc(NC(=O)c3ccccc3)ccc2O1`, the cytotoxicity call in test [1] and in test [2] was “inactive” throughout. Further, the growth inhibition call in test [3] was “inactive”.

On to `CO/N=C(\C(=O)N[C@@H]1C(=O)N2C(C(=O)O)=C(C[N+]3(C)CCCC3)CS[C@H]12)c1csc(N)n1`, for which the cytotoxicity call in test [1] and in test [2] was “inactive” throughout. Further, the growth inhibition call in test [3] is “active”.

With `CN(C)CC(=O)N[C@H]1CC[C@@H](CCNC(=O)C2CCC2)O[C@H]1CO`, the cytotoxicity call in test [1] and in test [2] was “inactive” in each case. In addition, in test [3], the growth inhibition call is “inactive”.

Turning to `C[C@@H]1CCCCO[C@H](CN(C)C(=O)Cc2ccccc2)[C@H](C)CN([C@@H](C)CO)C(=O)c2cc(NS(=O)(=O)c3ccc(Cl)cc3)ccc2O1`, the cytotoxicity call in test [1] and in test [2] was “inactive” throughout. Moreover, the growth inhibition call in test [3] is “inactive”.

Consider `O=C(C[C@H]1CC[C@@H]2[C@H](COC[C@H](O)CN2C(=O)c2cnccn2)O1)NCc1ccc(Oc2ccccc2)cc1`, for which the cytotoxicity call in test [1] and in test [2] was “inactive” in each case. Also, the growth inhibition call in test [3] was “inactive”.

As to `CO[C@H](CN(C)C(=O)c1ccc2c(c1)OCO2)[C@H](C)CN([C@@H](C)CO)S(=O)(=O)c1ccc(F)cc1`, the cytotoxicity call in test [1] and in test [2] was “inactive” throughout. The growth inhibition call in test [3] was “inactive”.

With `CO[C@H]1CN(C)C(=O)c2ccc(NS(C)(=O)=O)cc2OC[C@H](C)N(C(=O)C2CCOCC2)C[C@H]1C`, the cytotoxicity call in test [1] and in test [2] was “inactive” each time. Moreover, in test [3], the growth inhibition call is “inactive”.

The values are drawn from the antibiotic and cytotoxicity screens of Wong et al. (2023).
